Among the data in the supplement of paper PMC4967469 are AUC and IC50 values, retold here.

In general, IC50 refers to the concentration needed to halve the response being measured.

The IC50 comes from the fitted curve, where viability falls to half of the control; where the fit passes the top or lowest dose, that dose stands as a limit. The AUC spans the tested range (256-fold, ending at the top dose) of the same fit; it is 1 without any effect and falls as sensitivity rises. A top dose marked as inferred was calculated from the reported fits. Bounds are passed on as bounds.

Compound in this test: CCCCCCCCCCCC1=C(O)C(=O)C=C(O)C1=O [Embelin]
Kind of test: Viability of human cancer cell lines after 72 h of drug (GDSC screen). Particulars: top dose 32 µM; top dose inferred. The procedure: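 Human cancer cell lines in 384-well plates, medium with 10% serum, drug for 72 h over a 256-fold dose range (nine 2-fold or five 4-fold steps up to the top dose). Adherent lines were fixed and stained with the nucleic acid dye Syto60, suspension lines read with resazurin; signal relative to control wells, capped at 0 and 100%. One two-parameter sigmoid per drug and line, fitted in a mixed model over all curves with the slope shared within a line.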

Turning to HC-1 (hairy cell leukaemia, suspension), the AUC was 0.691 and the half-maximal inhibitory concentration (IC50) was determined as 6.68 µM.
In the same order, the values of HCC38 (breast, adherent) are 0.811 and 18.7 µM.
As to HCC70 (breast, adherent), the AUC was determined as 0.945 and the IC50 is greater than 32 µM.
In the same order, the values of HCC202 (breast, adherent) are 0.739 and 12.9 µM.
For the cell line HCC1143 (breast, adherent), the AUC amounted to 0.702 and the IC50 is 9.4 µM.
Turning to HCC1187 (breast, suspension), the AUC amounted to 0.904 and the IC50 is greater than 32 µM.
In the same order, the values of HCC1395 (breast, adherent) are 0.843 and 29.9 µM.
In the same order, the values of HCC1419 (breast, adherent) are 0.795 and 22.6 µM.
In the same order, the values of HCC1428 (breast, adherent) are 0.865 and greater than 32 µM.
Take HCC1500 (breast, adherent): the AUC stood at 0.902 and the IC50 is greater than 32 µM.
Consider HCC1569 (breast, adherent), for which the AUC came to 0.738 and the half-inhibitory concentration (IC50) came to 12.2 µM.
In the same order, the values of HCC1599 (breast, suspension) are 0.721 and 9.36 µM.
As to HCC1806 (breast, adherent), the AUC came to 0.85 and the IC50 stood at 21.3 µM.
As to HCC1937 (breast, adherent), the AUC is 0.751 and the IC50 turned out to be 12 µM.
Turning to HCC1954 (breast, adherent), the AUC is 0.779 and the IC50 was 15.3 µM.
In the same order, the values of HCC2157 (breast, suspension) are 0.894 and greater than 32 µM.
In the same order, the values of HCC2218 (breast, suspension) are 0.783 and 17.2 µM.
On to HCC2998 (large intestine, adherent), for which the AUC turned out to be 0.724 and the IC50 was determined as 8.45 µM.
With “HCC-15 (lung squamous cell carcinoma, adherent)”, the AUC amounted to 0.809 and the IC50 came out at 22.7 µM.
In the same order, the values of “HCC-33 (small cell lung carcinoma, adherent)” are 0.928 and greater than 32 µM.
In the same order, the values of HCC-44 (lung adenocarcinoma, adherent) are 0.605 and 3.85 µM.
Consider HCC-56 (large intestine, adherent), for which the AUC is 0.898 and the concentration for half-maximal inhibition (IC50) is greater than 32 µM.
In the same order, the values of HCC-78 (lung adenocarcinoma, adherent) are 0.856 and greater than 32 µM.
In the same order, the values of HCC-827 (lung adenocarcinoma, adherent) are 0.741 and 11 µM.
On to HCE-4 (oesophagus, adherent), for which the AUC is 0.758 and the IC50 is 9.67 µM.
In the same order, the values of HCT-15 (large intestine, adherent) are 0.751 and 11.1 µM.
In the same order, the values of HCT-116 (large intestine, adherent) are 0.829 and 18.5 µM.
In the case of HD-MY-Z (Hodgkin lymphoma, adherent), the AUC was determined as 0.837 and the half-maximal inhibitory concentration (IC50) is 21.6 µM.
In the same order, the values of HDLM-2 (Hodgkin lymphoma, suspension) are 0.811 and 16.7 µM.
HDQ-P1 (breast, adherent): the AUC was 0.694 and the half-maximal inhibitory concentration (IC50) was determined as 7.88 µM.
Consider HEC-1 (endometrium, adherent), for which the AUC is 0.788 and the half-maximal inhibitory concentration (IC50) amounted to 13.5 µM.
In the case of “HEL (acute myeloid leukaemia, semi-adherent)”, the AUC worked out at 0.791 and the half-inhibitory concentration (IC50) came to 11.8 µM.
In the same order, the values of HGC-27 (stomach, adherent) are 0.697 and 6.45 µM.
